Measurements taken from the supplement of paper PMC10338343.
± gives the standard deviation. The full ranking holds about 5,500 sequences; the median of “pre-steady-state target cleavage rate” is about 0.1, and the highest 2% start at about 0.64. The entries are a selection whose mix differs from that of the whole data set.

What follows are sequences tested on MIWI (PIWIL1) piRISC loaded with piRNA #2 (30 nt) (assay: pre-steady-state target cleavage rate (min^-1); MIWI and MILI are mouse PIWI proteins and EfPiwi is from a freshwater sponge; tags in brackets are library labels; higher = faster piRNA-guided slicing of the target). Conditions: guide: piRNA #2 5'p-UUAGGUAACCCAGUAGAUCCAGAGGAAUUC; auxiliary factor: 500 nM mouse GTSF1.
How it was run: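 Active affinity-purified piRISC (1 nM) loaded with one synthetic guide was mixed with a transcribed, DNA-blocked target RNA library (0.1 nM), with or without 500 nM GTSF1 partner protein, in HEPES–potassium acetate buffer at 33 °C for 0–8 or 0–960 min. Uncleaved targets were sequenced, normalised to depth and to weakly complementary targets, and pooled across three trials, with k3 capped at 0.0001 min^-1. The pre-steady-state cleavage rate was determined with a burst-and-steady-state fit.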

Sequence	pre-steady-state target cleavage rate
CUUAACCUGUGGAUCUACUCGGUUACCUAA	0.0531 ± 0.011
CUAUUCCCUCUGGAUCUACUGGGUUACCUAA	0.339 ± 0.049
CUUAUCCUCAGCAUCUACUGGGUUACCUAA	0.315 ± 0.034
CUUAAGGACUGGAUGUACUGGGUUACCUUA	0.0625 ± 0.043
CUUAAGGAGACCUAGAUGACGGUUACCUCAA	< 0.0001
CUUUUCCUCUGGAACUUCUGGGUUACCUAA	0.359 ± 0.036
CUUAAGGACUAGGAUCUACUGGGUUACCUAA	0.0895 ± 0.025
CUAUUCCUCUGGAUCUACUGGGUUUCCUUA	0.263 ± 0.062
CUUAAGCUCUGGAUCAACAGGGUUACCUAA	0.0381 ± 0.01
CUUAACCUGUGGUUCUACUGGGUUACCUAA	0.213 ± 0.021
CUUAAGGUCUUGAUCUACUGGGUUACCUAA	0.382 ± 0.037
CUUAUGCUCUGGAUCUACUGCGUUACCUAA	0.289 ± 0.034
CUUAUCCUCUCGAUCUUCUGGGUUACCUAA	0.625 ± 0.057
CUUUUCCUCAGGAUCUACUGGCUUACCUAA	0.0722 ± 0.015
CUUUUCCUCUGGAUCUACGGGGUUACCUAA	0.0842 ± 0.0056
CUUAAUCUCUGGAUCUACUGGGUUACCUAA	0.194 ± 0.034
CUUAUCCUCUGGAUCUACUGGGGUACCUAA	0.126 ± 0.033
CUAUUCGUCUGGAUCUAGUGGGUUACCUAA	0.0616 ± 0.011
CUUAUCCACUGGAUCUACUCGGUUACCUAA	0.0581 ± 0.016
CUUAUCCUCUGGAUCUACUGCGAUACCUAA	0.224 ± 0.033
CUUAAGGAGUGGAUCUACUGGUUUACCUAA	0.056 ± 0.02
GAAUUCCUCUGGAUCUACUGGGUUACCUAC [g2:g30:cont:t1C]	0.189 ± 0.031
CUUAAGCUCUGGUACUACUGGGUUACCUAA	0.249 ± 0.019

Sequence	pre-steady-state target cleavage rate
CUUAAGGAGUGGAUCUACUGGGUUACCUAU [g2:g21:cont:t1U]	0.139 ± 0.023
CUUAAGGAGUGGAUCUACUGGGUUAGCUAA	0.0313 ± 0.011
CUUAACCUCUGGAUCUACUGGGUUAGCUUA	0.0895 ± 0.013
CUAUUCCUCUGGAUCUACUGGGAAUCCUAA	0.184 ± 0.06
CUUAACCUCUGGAUCUACUGGGUUUCGUAA	0.101 ± 0.016
CUUAAGGAGUUGAUCUACUGGGUUACCUAA	0.00536 ± 0.0017
CAAUUCCACUGGAUCAACUGGGUUACCUAA	0.415 ± 0.044
CUUAUCCACUGGAUCUACUGGGUAACCUAA	0.256 ± 0.042
CUUAAGCUCUGGAUCUACAGGGUAACCUAA	0.039 ± 0.0086
CUUUUCCUCUGGUUCUACUGGGUAACCUAA	0.0949 ± 0.021
CUUAAGGACAGGAUCUACUGGGUUAGCUAA	0.00714 ± 0.0063
CUUAAGGUCUGGAUCUACUGGGUUCACCUAA	0.117 ± 0.019
CAAUACCUCUGGAUCUACUGCGUUACCUAA	0.488 ± 0.063
CUUAAGGUCUGGUCUACUGGGUUACCUAA	0.00625 ± 0.0034
CUAUUCCUCUGGAUCUACUGGGUUUGGUAA	0.0833 ± 0.031
CAAUAGGUCUGGAUCUACUGGGUUACCUAA	0.337 ± 0.025
CAAUUCGUCUGGAUCUUCUGGGUUACCUAA	0.203 ± 0.027
CUUUUCCUCUGGAUCUACUGGGUUAGCAAA	0.112 ± 0.026
CUAUUCCUUCUGGAUCUACUGGGUUACCUAA	0.506 ± 0.049
GUAUUCCUCUGGUUCUACUGGGUUACCUAA	0.0955 ± 0.034
CUUAAGGAGUGGAUGUACUGGGUUACCUUA	0.0163 ± 0.011
CUUAUCCUCUGGAUCUACACGGUUACCUAA	0.211 ± 0.026
CUUAAGGUGUGGAUCUACUGGGUUACCAAA	0.0404 ± 0.017

Sequence	pre-steady-state target cleavage rate
CAAUUCCUCUGCAUCUACUGGCUUACCUAA	0.149 ± 0.015
CUUAAGCUCUGGAACAACUGGGUUACCUAA	0.138 ± 0.02
CUUAAGGAGUGGAUCUACUGGGUUAACUAA	0.0555 ± 0.02
CAAAUCCUCUGGUUCUACUGGGUUACCUAA	0.79 ± 0.044
CUUAAGCUCUGGAUGUACUGGGUUACGUAA	0.414 ± 0.038
CAAUUCCUCUGGAUCUACAGGGUUACCUAA	0.308 ± 0.03
CUAUUCCUCUGGAUCUUCUCGGUUACCUAA	0.0723 ± 0.011
CUUUUCCUCUGGAUCUUGUGGGUUACCUAA	0.00502 ± 0.0027
CUUAAGCUCAGGAUCUACUGGGUUACGUAA	0.25 ± 0.036
CUUAACCUCUGGAUCCACUGGGUUACCUAA	0.0949 ± 0.011
CUUAUCCUCCGGAUCUACUGGGUUACCUAA	0.61 ± 0.1
CUUUUCGUCUGGAUCUACUGGGUAACCUAA	0.129 ± 0.024
CUUUUCCUCUGGAUCUACUGGGUUUCCUAA	0.414 ± 0.07
CUUUUCCUCUGGAUCUACAGGCUUACCUAA	0.026 ± 0.0064
GAAUUCCUCUGGAUCUACUGGGUUUGCUAA	0.414 ± 0.048
CUUAUCCUCUGGAUCUACAGCGUUACCUAA	0.155 ± 0.019
CUUAAGCUCUGGAUCUACUCGGUAACCUAA	0.00645 ± 0.0057
CUAUUCCUCUGGAUCAACUGGGUUACCUUA	0.295 ± 0.039
GAAUUCGUCUGGAUCUACUGGGUUUCCUAA	0.469 ± 0.06
CUUUUCCUCUGGAUGUACUGCGUUACCUAA	0.477 ± 0.084
CUUAACCACUGGAUCUACUGGGUUAGCUAA	0.0758 ± 0.02
CUAUUCCUGUGGAACUACUGGGUUACCUAA	0.213 ± 0.054
CUUAUCCUCUGGUUCUACUGGGUUACGUAA	0.454 ± 0.056

Sequence	pre-steady-state target cleavage rate
CAAUUCCUCUGGAUCUACAGGGUAACCUAA	0.129 ± 0.023
CUAUUGCCUCUGGAUCUACUGGGUUACCUAA	0.215 ± 0.03
CAAUUCCUCUGGAUCGUACUGGGUUACCUAA	0.00821 ± 0.0059
CUUAAGGAGACGAUCUACUGGGUUACCUAAA	0.00455 ± 0.0028
CUUUUCCUCUGGAUCUAGUGGGUUUCCUAA	0.058 ± 0.01
CUUAACCUCUGGAUCUACUCGGUAACCUAA	0.0105 ± 0.0073
CUUAAGGUCUCGGAUCUACUGGGUUACCUAA	0.2 ± 0.032
CUUAAGGUCUGCAUCUACUCGGUUACCUAA	0.02 ± 0.017
CUUAAGGUCGGGAUCUACUGGGUUACCUAA	0.0779 ± 0.022
CUUAACCUCUGGAUCUACUAGGUUACCUAA	0.103 ± 0.015
CAAUUCCUCUGGAUCUACUCGGUUACCUUA	0.0915 ± 0.033
CUUAAGGUCUGGACCUACUGGGUUACCUAA	0.11 ± 0.021
CACUUCCUCUGGAUCUACUGGGUUACCUAA	0.456 ± 0.056
CUUAAGGACAUGGAUCUACUGGGUUACCUAA	0.111 ± 0.031
CUUAACCUCUGGUAGUACUGGGUUACCUAA	0.132 ± 0.018
CUAUUCCUCUCGAUCUACUGGGUUACCAAA	0.711 ± 0.047
CUUUACCUCUGGAUCUACUGGGUUUCCUAA	0.167 ± 0.029
CUUAAGGUCUGGAUCUACUGGGUUACCUAC [g2:g23:cont:t1C]	0.246 ± 0.027
CUUAUCCUCUGGUUCUACUGGGUUACCUUA	0.368 ± 0.058
CUUUUCCUGUGGAUCUACUGGGUUACCUAA	0.486 ± 0.049
CUUAUCCUCUGGAUCUACUCGGUUACCAAA	0.0835 ± 0.031
CUUAUCGUCUGGAUCUAGUGGGUUACCUAA	0.0569 ± 0.018
